Reference: the supplement of paper PMC8007513
Counter-ions that a name gives are not always drawn. ± gives the standard error. Screen size: about 1,300 compounds; about 130 (10%) showed an effect of 50% or more. Only a part is listed here, and it is no random draw.

System: Trichoderma virens ATCC 9645
Test: growth yield (OD600) with compound + IPBC relative to untreated control; higher = less growth inhibition
Conditions: compound concentration: 100 uM, IPBC concentration: 200 ng/ml
Summary of the method: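 Trichoderma virens ATCC 9645 spores at 15,000 spores ml^−1 in potato dextrose broth were exposed in 96-well plates to library compounds at 100 μM final, with or without a biocide at 200 ng ml^−1. After growth at 30 °C, OD600 was read at 40 h and 72 h. Values are growth relative to the control without either agent, averaged over duplicate screens.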

CC[C@H]1OC(=O)C[C@@H](O)[C@H](C)[C@@H](O[C@@H]2O[C@H](C)[C@@H](O[C@H]3C[C@@](C)(O)[C@@H](O)[C@H](C)O3)[C@H](N(C)C)[C@H]2O)[C@@H](CC=O)C[C@@H](C)C(=O)/C=C/C(C)=C/[C@@H]1CO[C@@H]1O[C@H](C)[C@@H](O)[C@@H](OC)[C@H]1OC [Tylosin] + CCCCNC(=O)OCC#CI [3-iodo-2-propynyl butylcarbamate (IPBC)]
growth yield (40 h): 95.3 ± 7.9%
growth yield (72 h): 95.1 ± 3%

O=C(CCCCCCC(=O)Nc1ccccc1)NO [Vorinostat] + CCCCNC(=O)OCC#CI [3-iodo-2-propynyl butylcarbamate (IPBC)]
growth yield (40 h): 107 ± 9.5%
growth yield (72 h): 99.5 ± 3.9%

COC(=O)C1=C(C)NC(C)=C(C(=O)OC2CCCN(Cc3ccccc3)C2)C1c1cccc([N+](=O)[O-])c1 (configuration not stated) [Benidipine hydrochloride] + CCCCNC(=O)OCC#CI [3-iodo-2-propynyl butylcarbamate (IPBC)]
growth yield (40 h): 87.2 ± 17%
growth yield (72 h): 104 ± 12%

CC1(C)S[C@@H]2[C@H](NC(=O)[C@H](C(=O)O)c3ccsc3)C(=O)N2[C@H]1C(=O)O [Ticarcillin sodium] + CCCCNC(=O)OCC#CI [3-iodo-2-propynyl butylcarbamate (IPBC)]
growth yield (40 h): 89.9 ± 3.2%
growth yield (72 h): 92.2 ± 2.2%

Cc1cc(NS(=O)(=O)c2ccc(N)cc2)no1 [Sulfamethoxazole] + CCCCNC(=O)OCC#CI [3-iodo-2-propynyl butylcarbamate (IPBC)]
growth yield (40 h): 45.6 ± 1.1%

O=C1CN(/N=C/c2ccc(-c3ccc([N+](=O)[O-])cc3)o2)C(=O)N1 [Dantrolene sodium salt] + CCCCNC(=O)OCC#CI [3-iodo-2-propynyl butylcarbamate (IPBC)]
growth yield (40 h): 103 ± 3.8%
growth yield (72 h): 104 ± 3.1%

CCOC(=O)n1ccn(C)c1=S [Carbimazole] + CCCCNC(=O)OCC#CI [3-iodo-2-propynyl butylcarbamate (IPBC)]
growth yield (40 h): 76.72 ± 0.16%
growth yield (72 h): 78.1 ± 0.94%

C[C@H](N)[C@H](O)c1cccc(O)c1 [Metaraminol bitartrate] + CCCCNC(=O)OCC#CI [3-iodo-2-propynyl butylcarbamate (IPBC)]
growth yield (40 h): 86.25 ± 0.48%
growth yield (72 h): 94.6 ± 0.42%

O=C1CN(/N=C/c2ccc([N+](=O)[O-])o2)C(=O)N1 [Nitrofurantoin] + CCCCNC(=O)OCC#CI [3-iodo-2-propynyl butylcarbamate (IPBC)]
growth yield (40 h): 88.6 ± 4.1%
growth yield (72 h): 98.4 ± 2.3%

OCCN(CCO)c1nc(N2CCCCC2)c2nc(N(CCO)CCO)nc(N3CCCCC3)c2n1 [Dipyridamole] + CCCCNC(=O)OCC#CI [3-iodo-2-propynyl butylcarbamate (IPBC)]
growth yield (40 h): 44.5 ± 1.6%
growth yield (72 h): 57.37 ± 0.52%

O=C(O)c1ccccc1C(=O)Nc1ccc(S(=O)(=O)Nc2nccs2)cc1 [Phthalylsulfathiazole] + CCCCNC(=O)OCC#CI [3-iodo-2-propynyl butylcarbamate (IPBC)]
growth yield (40 h): 99.9 ± 14%
growth yield (72 h): 101 ± 8.7%

O=C([O-])c1ccccc1-c1c2cc(Br)c(=O)cc-2oc2[c]([Hg+])c([O-])c(Br)cc12.[Na+].[Na+].[OH-] [Merbromin] + CCCCNC(=O)OCC#CI [3-iodo-2-propynyl butylcarbamate (IPBC)]
growth yield (40 h): 5.4 ± 0.64%
growth yield (72 h): 3.99 ± 0.21%

CC(C)[N+](C)(CCC(C(N)=O)(c1ccccc1)c1ccccc1)C(C)C [Isopropamide iodide] + CCCCNC(=O)OCC#CI [3-iodo-2-propynyl butylcarbamate (IPBC)]
growth yield (40 h): 104 ± 6.8%
growth yield (72 h): 97.3 ± 5.7%

CC(C)CC(N(C)C)C1(c2ccc(Cl)cc2)CCC1 (configuration not stated) [Sibutramine hydrochloride] + CCCCNC(=O)OCC#CI [3-iodo-2-propynyl butylcarbamate (IPBC)]
growth yield (40 h): 76.7 ± 0.79%
growth yield (72 h): 90.82 ± 0.42%

C[C@H](CCC(=O)O)[C@H]1CC[C@H]2[C@@H]3[C@@H](O)C[C@@H]4C[C@H](O)CC[C@]4(C)[C@H]3CC[C@]12C [Urosiol] + CCCCNC(=O)OCC#CI [3-iodo-2-propynyl butylcarbamate (IPBC)]
growth yield (40 h): 104 ± 12%
growth yield (72 h): 99.7 ± 5.1%

C#C[C@]1(O)CC[C@H]2[C@@H]3CCC4=CCCC[C@@H]4[C@H]3CC[C@@]21C [Lynestrenol] + CCCCNC(=O)OCC#CI [3-iodo-2-propynyl butylcarbamate (IPBC)]
growth yield (40 h): 72.11 ± 0.64%
growth yield (72 h): 86.6 ± 1.5%

O=C(CCCN1CCN(c2ccccn2)CC1)c1ccc(F)cc1 [Azaperone] + CCCCNC(=O)OCC#CI [3-iodo-2-propynyl butylcarbamate (IPBC)]
growth yield (40 h): 96.6 ± 9.5%
growth yield (72 h): 101 ± 4.5%

NC[C@@H]1O[C@@H](O[C@H]2[C@H](O)[C@@H](O[C@H]3O[C@H](CO)[C@@H](O)[C@H](N)[C@H]3O)[C@H](N)C[C@@H]2N)[C@@H](O)[C@H](O)[C@H]1O [Kanamycin A sulfate] + CCCCNC(=O)OCC#CI [3-iodo-2-propynyl butylcarbamate (IPBC)]
growth yield (40 h): 87.2 ± 9.4%
growth yield (72 h): 93.4 ± 4.7%

COC(=O)C1=C(C#N)NC(C)=C(C(=O)OC(C)C)C1c1cccc([N+](=O)[O-])c1 (configuration not stated) [Nilvadipine] + CCCCNC(=O)OCC#CI [3-iodo-2-propynyl butylcarbamate (IPBC)]
growth yield (40 h): 107.2 ± 0.16%
growth yield (72 h): 102 ± 2.5%

CC1CC(OC(=O)c2ccccc2O)CC(C)(C)C1 (configuration not stated) [Homosalate] + CCCCNC(=O)OCC#CI [3-iodo-2-propynyl butylcarbamate (IPBC)]
growth yield (40 h): 87.5 ± 9.7%
growth yield (72 h): 91.9 ± 6.9%

CC[C@@H]1C(=O)OC[C@@H]1Cc1cncn1C [Pilocarpine nitrate] + CCCCNC(=O)OCC#CI [3-iodo-2-propynyl butylcarbamate (IPBC)]
growth yield (40 h): 83.2%
growth yield (72 h): 92.92 ± 0.21%

CC(C)NC[C@@H](O)COc1ccc(CC(N)=O)cc1 [(R)-(+)-Atenolol] + CCCCNC(=O)OCC#CI [3-iodo-2-propynyl butylcarbamate (IPBC)]
growth yield (40 h): 101 ± 2.1%
growth yield (72 h): 98.48 ± 0.52%

Cc1c(NC(=O)c2cccnc2)c(=O)n(-c2ccccc2)n1C [Nifenazone] + CCCCNC(=O)OCC#CI [3-iodo-2-propynyl butylcarbamate (IPBC)]
growth yield (40 h): 83.23 ± 0.64%
growth yield (72 h): 92.19 ± 0.1%

CS(=O)(=O)OCCCCOS(C)(=O)=O [Busulfan] + CCCCNC(=O)OCC#CI [3-iodo-2-propynyl butylcarbamate (IPBC)]
growth yield (40 h): 108 ± 1.1%
growth yield (72 h): 108 ± 2.9%

S=C(NC1CCCCC1)N1CCC(c2cnc[nH]2)CC1 [Thioperamide maleate] + CCCCNC(=O)OCC#CI [3-iodo-2-propynyl butylcarbamate (IPBC)]
growth yield (40 h): 92.4 ± 4.5%
growth yield (72 h): 95.9 ± 2.3%

COc1cccc2c1C(=O)c1c(O)c3c(c(O)c1C2=O)C[C@@](O)(C(C)=O)C[C@@H]3O[C@H]1C[C@H](N)[C@H](O)[C@H](C)O1 [Daunorubicin hydrochloride] + CCCCNC(=O)OCC#CI [3-iodo-2-propynyl butylcarbamate (IPBC)]
growth yield (40 h): 9.21 ± 1.6%
growth yield (72 h): 44.7 ± 1.3%

C=CC1=C(C(=O)O)N2C(=O)[C@@H](NC(=O)/C(=N\O)c3csc(N)n3)[C@H]2SC1 [Cefdinir] + CCCCNC(=O)OCC#CI [3-iodo-2-propynyl butylcarbamate (IPBC)]
growth yield (40 h): 102 ± 1.1%
growth yield (72 h): 102 ± 2.5%

CCN(CC)CC(=O)Nc1c(C)cccc1C [Lidocaine hydrochloride] + CCCCNC(=O)OCC#CI [3-iodo-2-propynyl butylcarbamate (IPBC)]
growth yield (40 h): 90.06 ± 0.79%
growth yield (72 h): 91.5 ± 1.3%

CC(=O)OCC(=O)[C@@]12OC(C)(C)O[C@@H]1C[C@H]1[C@@H]3C[C@H](F)C4=CC(=O)C=C[C@]4(C)[C@@]3(F)[C@@H](O)C[C@@]12C [Fluocinonide] + CCCCNC(=O)OCC#CI [3-iodo-2-propynyl butylcarbamate (IPBC)]
growth yield (40 h): 96.893 ± 1e-14%
growth yield (72 h): 95.3 ± 1.1%

c1ccc2c(CC3=NCCN3)cccc2c1 [Naphazoline hydrochloride] + CCCCNC(=O)OCC#CI [3-iodo-2-propynyl butylcarbamate (IPBC)]
growth yield (40 h): 87 ± 1.9%
growth yield (72 h): 91.9%

COc1ccc2c(c1)[C@]13CCCC[C@@H]1[C@H](C2)N(C)CC3 [Dextromethorphan hydrobromide monohydrate] + CCCCNC(=O)OCC#CI [3-iodo-2-propynyl butylcarbamate (IPBC)]
growth yield (40 h): 76.6 ± 2.5%
growth yield (72 h): 90.8 ± 3.4%

CC1(C)S[C@@H]2[C@H](NC(=O)[C@H](N)c3ccccc3)C(=O)N2[C@H]1C(=O)O [Ampicillin trihydrate] + CCCCNC(=O)OCC#CI [3-iodo-2-propynyl butylcarbamate (IPBC)]
growth yield (40 h): 90.1 ± 7.2%
growth yield (72 h): 96.3 ± 7.5%

COc1ccc2cc([C@H](C)C(=O)O)ccc2c1 [(S)-Naproxen] + CCCCNC(=O)OCC#CI [3-iodo-2-propynyl butylcarbamate (IPBC)]
growth yield (40 h): 61.3 ± 1.9%
growth yield (72 h): 78.6 ± 1.1%

C/C=C(/C(=C/C)c1ccc(O)cc1)c1ccc(O)cc1 [Dienestrol] + CCCCNC(=O)OCC#CI [3-iodo-2-propynyl butylcarbamate (IPBC)]
growth yield (40 h): 94.8 ± 3.3%
growth yield (72 h): 93.8 ± 2.3%

O=C(O)c1ccccc1OP(=O)(O)O [Fosfosal] + CCCCNC(=O)OCC#CI [3-iodo-2-propynyl butylcarbamate (IPBC)]
growth yield (40 h): 86.1 ± 7.9%
growth yield (72 h): 98.2 ± 5.9%

CC(=O)O[C@H]1C(=O)[C@@]2(C)[C@H]([C@H](OC(=O)c3ccccc3)[C@]3(O)C[C@H](OC(=O)[C@H](O)[C@@H](NC(=O)c4ccccc4)c4ccccc4)C(C)=C1C3(C)C)[C@]1(OC(C)=O)CO[C@@H]1C[C@@H]2O [Paclitaxel] + CCCCNC(=O)OCC#CI [3-iodo-2-propynyl butylcarbamate (IPBC)]
growth yield (40 h): 97.5 ± 1.9%
growth yield (72 h): 100 ± 1.3%

COc1cccc2c1C(=O)c1c(O)c3c(c(O)c1C2=O)C[C@@](O)(C(=O)CO)C[C@@H]3O[C@H]1C[C@H](N)[C@@H](O)[C@H](C)O1 [Epirubicin hydrochloride] + CCCCNC(=O)OCC#CI [3-iodo-2-propynyl butylcarbamate (IPBC)]
growth yield (40 h): 42.7 ± 0.48%
